# Reference: PubChem BioAssay AID624417 (National Center for Advancing Translational Sciences (NCATS), 2012)
# “And” between values parts separate entries of the source, which are not always exact repeats. Equal entries are not always repeated. Screen size: about 410,000 compounds; about 6,400 (1.6%) were called active. The inconclusive results got no clear call from the source; some entries with a clear call stand among them for comparison. Calls come from the whole dose curve; as a rule, active = well fitted inhibition curve with a large enough effect; inconclusive = small, poorly fitted or top-dose-only effect; inactive = no such curve, though single readings can be large or run the other way. Potencies beside an inconclusive call are fits to weak or partial responses and may not hold up.
# Molecular target: Glucagon-like peptide 1 receptor (Homo sapiens) (UniProt P43220)
# UniProt P43220, sequence (P43220 whole entry, looked up): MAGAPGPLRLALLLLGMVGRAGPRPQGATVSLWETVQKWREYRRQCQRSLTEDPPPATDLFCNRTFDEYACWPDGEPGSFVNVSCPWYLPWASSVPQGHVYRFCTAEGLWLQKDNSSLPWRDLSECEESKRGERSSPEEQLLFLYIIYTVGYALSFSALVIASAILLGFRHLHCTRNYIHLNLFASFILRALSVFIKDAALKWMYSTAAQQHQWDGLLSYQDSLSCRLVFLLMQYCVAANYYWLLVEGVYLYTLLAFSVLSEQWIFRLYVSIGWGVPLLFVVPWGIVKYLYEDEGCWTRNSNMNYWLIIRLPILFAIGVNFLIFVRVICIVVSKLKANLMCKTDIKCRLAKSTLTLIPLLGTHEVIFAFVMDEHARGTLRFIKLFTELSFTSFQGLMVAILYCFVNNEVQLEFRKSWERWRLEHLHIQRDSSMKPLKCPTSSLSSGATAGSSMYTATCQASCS
# Assay: qHTS of GLP-1 Receptor Inverse Agonists (Inhibition Mode); note: nearly all actives have a fitted effect of over 55% in size
# Details: HEK293 GLP-1R CRE-luciferase, luminescence, 24 h, GLP-1R form is constitutively active; series mostly up to 38.3 µM
# Summary of the method: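 Constitutively active GLP-1R drives a cAMP-responsive luciferase in stably transfected HEK293 cells; test compounds are added after overnight (12 h) attachment and left 24 hr, and signal loss in luminescence marks inhibition.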
# Potency is the fitted concentration of half-maximal effect; tags give direction and shape of the fitted curve.
row,SMILES,Potency
1,CSCc1ccc(C(=O)Nc2cccc(C)c2C)cc1,"inconclusive: 31.6 µM [inhibitor, single point]"
2,Cc1onc(-c2c(F)cccc2Cl)c1C(=O)OCC(=O)NCc1ccccc1,"inconclusive: 3.55 µM [inhibitor, partial curve, poor fit]"
3,Cc1ccc(S(=O)(=O)NCCC(=O)Nc2ccc(C)c(Cl)c2)cc1C,active: 7.08 µM
4,CCOC(=O)C1=CC[C@@H](c2ccccc2Cl)N(S(=O)(=O)c2ccc(C)cc2)[C@H]1C(=O)OCC,"inconclusive: 12.6 µM [inhibitor, partial curve, poor fit]"
5,CCc1cccc(NC(=S)Nc2ccc(CN3CCOCC3)cc2)c1,"inconclusive: 2 µM [inhibitor, full curve, poor fit]"
6,COc1ccc(C(C)=O)cc1CSc1nc2ccccc2c(=O)n1-c1ccccc1C,"inconclusive: 11.2 µM [inhibitor, single point]"
7,CCN(CC(=O)Nc1ccc(NC(C)=O)cc1)C(=O)c1ccc2c(c1)OCO2,inactive
8,Cc1ccc(S(=O)(=O)Nc2ccc3c(c2)C(=O)N([C@H](C)CO)C[C@H](C)[C@@H](CN(C)C(=O)Nc2ccc(C(F)(F)F)cc2)O3)cc1,"inconclusive: 20 µM [inhibitor, single point]"
9,CCOc1ccccc1N1CCN(C(=O)c2cc3ccccc3cc2OC)CC1,"inconclusive: 2.82 µM [inhibitor, full curve]"
10,Cc1cc(C)cc(NC(=O)C2C3C=CC4(O3)C2C(=O)N(CCCN(C)C)C4C(=O)NC2CCCC(C)C2C)c1 (configuration not stated),"inconclusive: 11.2 µM [inhibitor, partial curve, poor fit]"
11,O=C1C(Cl)=C(Nc2ccc(O)cc2)C(=O)c2ccccc21,"inconclusive: 28.2 µM [inhibitor, single point]"
12,CC(C)(C)c1ccc(C(=O)OCCN2CCCCC2)cc1,"inconclusive: 28.2 µM [inhibitor, single point]"
13,CCOc1cc2[nH]c(=S)n(C3CCN(Cc4ccccc4)CC3)c(=O)c2cc1OCC,inactive
14,Nc1ccc(C(=O)N/N=C\c2cc(N=Nc3cccc4ccccc34)ccc2O)cc1,"inconclusive: 11.2 µM [inhibitor, single point]"
15,Cc1ccccc1OCC(=O)Nc1ccccc1OCc1cc(=O)n2ccccc2n1,inactive
16,CCC(=O)Nc1cccc(-c2ccc(N3CCCCC3)nn2)c1,"inconclusive: 15.8 µM [inhibitor, single point]"
17,COc1cc(/C=C2/CCc3ccccc3C2=O)cc(OC)c1OC,"inconclusive: 28.2 µM [inhibitor, single point]"
18,CC(C)c1nn2c(=O)cc(COC(=O)c3ccc(NC(=O)c4cccs4)cc3)nc2s1,inactive
19,COc1ccc(/C=C/C(=O)Nc2ccncc2)cc1OC,inactive
20,COc1ccc(N(CC(=O)N2CCc3ccccc32)S(=O)(=O)c2c(C)nn(C)c2C)cc1,inactive
21,O=C(COc1ccccc1[N+](=O)[O-])N1CCC(Cc2ccccc2)CC1,"inconclusive: 10 µM [inhibitor, partial curve, poor fit]"

row,SMILES,Potency
1,Cc1sc2ncnc(NCC(c3ccco3)N3CCCC3)c2c1C (configuration not stated),"inconclusive: 11.2 µM [inhibitor, partial curve, poor fit]"
2,Cc1c(C(=O)N2CCC(n3nccc3NC(=O)C3CC3)CC2)[nH]c2ccc(Cl)cc12,"inconclusive: 10 µM [inhibitor, single point]"
3,Cc1cc2c(OCC(O)CN3CCCCC3)cccc2[nH]1 (configuration not stated),inactive
4,CCn1c(-c2ccccc2Cl)nn(CC(=O)Nc2ccc(OC)cc2)c1=S,"inconclusive: 5.62 µM [inhibitor, full curve, poor fit]"
5,Cc1ccc(/C=N/NC(=O)c2ccncc2)s1,"inconclusive: 28.2 µM [inhibitor, single point]"
6,CCN(CCCNC(=O)Cn1ncc2c([nH]c3ccc(C)cc32)c1=O)c1ccccc1,inactive
7,O=C(NN=Cc1cccc(O)c1O)c1ccccc1,"inconclusive: 28.2 µM [inhibitor, single point]"
8,Cc1ccc2cc(CCNC(=O)c3ccco3)c(=O)[nH]c2c1,inactive
9,COc1ccc(Nc2oc(COc3ccc(Cl)cc3)nc2C#N)cc1,"inconclusive: 10 µM [inhibitor, partial curve, poor fit]"
10,CC1=NN(c2ccccc2)C(=O)C1C=Nc1ccccc1O (configuration not stated),"inconclusive: 11.2 µM [inhibitor, partial curve, poor fit]"
11,Cc1cc(OCC(=O)Nc2ccc(S(=O)(=O)NC3=NCCCCC3)cc2)c(C(C)C)cc1Cl,"inconclusive: 10 µM [inhibitor, partial curve, poor fit]"
12,CCc1nc2c(OCCOc3ccccc3)cccn2c1N(C)C(=O)C1CC1,inactive
13,COc1cc(OC)c(NC(=O)CCc2c(C)nc3c4c(C)cc(C)nc4nn3c2C)cc1Cl,inactive
14,COc1ccc(Cl)cc1NCC(=O)Nc1ccc(OC)c(S(=O)(=O)N2CCCCC2)c1,"inconclusive: 28.2 µM [inhibitor, single point]"
15,CCc1ccc2c(c1)C(c1ccc(N3CCOCC3)cc1)=NNC(c1ccncc1)=N2,"inconclusive: 0.501 µM [inhibitor, full curve, poor fit]"
16,Cc1ccc(NC(=O)CNC(c2ccccc2)c2ccccc2)c(F)c1,active: 11.2 µM
17,CCOC(=O)c1oc2ccccc2c1NC(=O)COC,inactive
18,COc1ccc2oc(/C=C/N(C)C)c(C(=O)c3ccc(Cl)cc3)c2c1,"inconclusive: 28.2 µM [inhibitor, single point]"
19,FC(F)(F)c1cccc(Nc2c3c(nc4ccc(Cl)cc24)CCC3)c1,"inconclusive: 8.91 µM [inhibitor, partial curve, poor fit]"
20,O=C(NCCc1ccc(Cl)cc1)C(=O)c1c[nH]c2ccccc12,"inconclusive: 3.55 µM [inhibitor, full curve, poor fit]"
21,CC(C)C[C@H]1CNC(=S)N1C[C@H]1CCCN1C[C@H](Cc1ccc(O)cc1)N1C[C@H](CC(C)C)N(CCc2ccccc2)C1=S,"inconclusive: 10 µM [inhibitor, partial curve, poor fit]"

row,SMILES,Potency
1,COc1cc(NC(=O)C2CCN(S(=O)(=O)c3c(C)noc3/C=C/c3ccccc3F)CC2)cc(OC)c1OC,"inconclusive: 12.6 µM [inhibitor, single point]"
2,COCCNC(=S)NC(=O)CC12CC3CC(CC(C3)C1)C2,"inconclusive: 0.316 µM [inhibitor, full curve, poor fit]"
3,COc1ccc2nc(NC(=O)c3cccc(S(=O)(=O)N4CCOCC4)c3)sc2c1,"inconclusive: 12.6 µM [inhibitor, partial curve, poor fit]"
4,O=C(Nc1ccncc1)c1c(Cl)cccc1Cl,"inconclusive: 0.501 µM [inhibitor, full curve, poor fit]"
5,COC(=O)C1=C(Cn2cnc3ccccc32)NC(=O)NC1c1cc(C)ccc1C (configuration not stated),"inconclusive: 22.4 µM [inhibitor, partial curve, poor fit]"
6,Oc1ccccc1CN(Cc1ccco1)CC(O)COCc1ccc(Cl)cc1 (configuration not stated),"inconclusive: 10 µM [inhibitor, partial curve]"
7,O=C(CN1CCCC1)Nc1ccc(-c2nc3cc(NC(=O)CN4CCCC4)ccc3o2)cc1,inactive
8,Cc1ccc(-c2cn(-c3ccccc3)c3[n+]2CCCS3)cc1,"inconclusive: 4.47 µM [inhibitor, full curve, poor fit] and inconclusive: 5.62 µM [inhibitor, full curve, poor fit]"
9,CC(=O)Nc1ccc(SCCN2CC[C@@H](C(C)(C)C)CCC2=O)cc1,"inconclusive: 7.94 µM [inhibitor, partial curve, poor fit]"
10,CC(C)c1ccc(Nc2c(-c3ccccn3)nc3ccccn23)cc1,"inconclusive: 3.16 µM [inhibitor, full curve, poor fit]"
11,CCCOc1ccccc1OCC(=O)N1CCN(S(=O)(=O)c2ccc(Cl)cc2)CC1,"inconclusive: 11.2 µM [inhibitor, partial curve, poor fit]"
12,CC(C)c1ccc(NC(=O)C2CC3CCC2C3)cc1 (configuration not stated),"inconclusive: 7.08 µM [inhibitor, partial curve, poor fit]"
13,CC(C)(C)OC(=O)NCCCC[C@H](NC(=O)c1[nH]cnc1C(=O)Nc1ccc(Cl)cc1)C(=O)OC(C)(C)C,"inconclusive: 5.62 µM [inhibitor, full curve, poor fit]"
14,CCOc1ccc(NC(=S)Nc2cccnc2)cc1,inactive
15,Cc1occc1C(=O)N1CCCC(Nc2ccc(C(C)C)cc2)C1 (configuration not stated),"inconclusive: 8.91 µM [inhibitor, partial curve]"
16,COC(=O)[C@@]1(Cc2ccc(OC)cc2)[C@H]2c3cc(C(=O)N4CCCC4)n(Cc4ccccc4)c3C[C@H]2CN1C(=O)c1ccccc1,"inconclusive: 28.2 µM [inhibitor, single point]"
17,CN1C(=S)N(c2cccnc2)C(=O)/C1=C\c1ccc(N(C)C)cc1,"inconclusive: 28.2 µM [inhibitor, single point]"
18,O=C(C(Cc1ccccc1)n1cccc1)N1CCN(C2CCCCC2)CC1 (configuration not stated),"inconclusive: 10 µM [inhibitor, partial curve, poor fit]"
19,CC(NC(C(=O)c1ccccc1)c1ccccc1)c1ccccc1 (configuration not stated),"inconclusive: 28.2 µM [inhibitor, single point]"
20,COc1ccc(-c2noc(CNC(=O)COc3cccc(C)c3C)n2)cc1,"inconclusive: 28.2 µM [inhibitor, single point]"
